# Measured values from PubChem BioAssay (NCATS).
# Where “and” joins values, the source holds several entries; their conditions need not be identical. Equal values may be shown once. The inconclusive results got no clear call from the source; some entries with a clear call stand among them for comparison. For some assays here: Potencies beside an inconclusive call are fits to weak or partial responses and may not hold up. Calls of active or inactive are those of the source. Calls come from the whole dose curve; as a rule, active = well fitted curve in the direction sought with a large enough effect; inconclusive = small, poorly fitted or top-dose-only effect, or another doubt; inactive = no such curve, though single readings can be large; an effect the other way counts as inactive or inconclusive.
# Columns and labels:
# [1] = qHTS of pediatric cancer cell lines to identify multiple opportunities for drug repurposing: Primary screen for OHS-50 cells (AID 1347103); settings: OHS-50 osteosarcoma viability, CellTiter-Glo luminescence, 48 h; activity change, negative = cytotoxic: at 57.3 µM (top of the series); note: nearly all actives have a fitted effect of over 40% in size;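 for activity change, negative = cytotoxic: plate controls were DMSO neutral control for no effect and bortezomib positive control for full effect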
# In short: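 Cells (500-1,000/well) rested 5 h, then received compounds for 48 h; metabolically active cells were measured by CellTiter-Glo luminescence. Final concentrations spanned up to 46 µM (MIPE, 11-point) or 0.59 nM-46 µM (NPC, 8-point) in primary screens, 11-point in follow-ups.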
# [2] = qHTS of pediatric cancer cell lines to identify multiple opportunities for drug repurposing: Primary screen for RD cells (AID 1347104); note: nearly all actives have a fitted effect of over 55% in size;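 for activity change, negative = cytotoxic: plate controls were DMSO for no effect and bortezomib for full effect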
# In short: (§1)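 ATP-based luminescence (CellTiter-Glo) quantifies viability after a 48-hour exposure. Compounds are dosed across 8 or 11 final concentrations; DMSO and 2.3 µM bortezomib serve as controls.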
# [3] = qHTS of pediatric cancer cell lines to identify multiple opportunities for drug repurposing: Primary screen for control Hh wild type fibroblast cells (AID 1347106); note: nearly all actives have a fitted effect of over 55% in size;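 for activity change, negative = cytotoxic: % is set by controls: 0 for no effect and ±100 for the full control effect; a drop in luminescence marks cytotoxicity and a rise apparent proliferation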
# In short: (§2)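 Cells (500-1,000/well) in growth media were settled 5 h at 37 degrees C, then given compounds for 48 h. Viability was read as CellTiter-Glo luminescence. Primary runs used MIPE at 11 points (0.78 nM-46 µM) and NPC at 8 points (0.59 nM-46 µM); follow-ups used 11 points.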
# [4] = qHTS of pediatric cancer cell lines to identify multiple opportunities for drug repurposing: Primary screen for Rh41 cells (AID 1347108); note: nearly all actives have a fitted effect of over 70% in size;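 for activity change, negative = cytotoxic: luminescence drop marks cytotoxic hits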
# In short: as §1
# [5] = qHTS of pediatric cancer cell lines to identify multiple opportunities for drug repurposing: Primary screen for MG 63 (6-TG R) cells (AID 1347105); settings: MG 63 (6-TG R) viability, CellTiter-Glo, 48 h; activity change, negative = cytotoxic: at 46 µM (top of the series) unless noted; note: nearly all actives have a fitted effect of over 50% in size; for activity change, negative = cytotoxic: % is set by controls: 0 for no effect and ±100 for the full control effect
# In short: as §1
# [6] = qHTS of pediatric cancer cell lines to identify multiple opportunities for drug repurposing: Primary screen for Rh30 cells (AID 1347107); note: nearly all actives have a fitted effect of over 75% in size; for activity change, negative = cytotoxic: % is set by controls: 0 for no effect and ±100 for the full control effect
# In short: as §2
# [7] = qHTS of pediatric cancer cell lines to identify multiple opportunities for drug repurposing: Confirmatory screen for BT-12 cells (AID 1347112); note: nearly all actives have a fitted effect of over 55% in size; for activity change, negative = cytotoxic: % is set by controls: 0 for no effect and ±100 for the full control effect
# In short: as §2
# [8] = qHTS of pediatric cancer cell lines to identify multiple opportunities for drug repurposing: Confirmatory screen for NB1643 cells (AID 1347109); settings: NB1643 neuroblastoma cell viability; activity change, negative = cytotoxic: at 45.9 µM (top of the series) unless noted; note: nearly all actives have a fitted effect of over 45% in size
# In short: as §2
# [9] = qHTS of pediatric cancer cell lines to identify multiple opportunities for drug repurposing: Confirmatory screen for SK-N-MC cells (AID 1347111);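 note: cells exposed to compound for 48 h before the readout; nearly all actives have a fitted effect of over 70% in size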
# In short: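 Metabolically active cells were quantified by ATP-dependent luminescence (CellTiter-Glo, 15 min at room temperature) following 48 h treatment. Cells had been plated at 500-1,000 per well and settled for 5 h beforehand.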
# [10] = qHTS of pediatric cancer cell lines to identify multiple opportunities for drug repurposing: Confirmatory screen for A673 cells (AID 1347110);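 note: cells exposed to compound for 48 h before the viability read; nearly all actives have a fitted effect of over 65% in size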
# In short: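 A673 cells at 500-1,000 cells/well were dosed 5 h after plating, in dilution series up to 46 uM final; primary runs used 8 or 11 points and confirmatory runs used 11 points. Viability was read by CellTiter-Glo luminescence after 48 h, against DMSO and 2.3 uM bortezomib controls.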
# Potency is the fitted concentration of half-maximal effect; tags give direction and shape of the fitted curve.
structure (smiles),measurement,setting,value
COc1cc(CC(C)N)c(OC)cc1Br (configuration not stated),Potency,[1],"inconclusive: 73.7 µM [cytotoxic, single point]"
same,Potency,[2],"inconclusive: 56.6 µM [cytotoxic, single point]"
same,Potency,[3],"inconclusive: 11.3 µM [cytotoxic, full curve, poor fit]"
same,Potency,[4],"inconclusive: 14.2 µM [cytotoxic, full curve]"
CC(Cc1ccccc1)NCc1ccccc1Cl (configuration not stated),"activity change, negative = cytotoxic",[1],inconclusive: -31.1% [cytotoxic]
same,Potency,[2],inactive
same,Potency,[3],inactive
CN(C)[C@@H]1C(=O)C(C(N)=O)=C(O)[C@@]2(O)C(=O)C3=C(O)c4c(O)cccc4[C@@](C)(O)[C@H]3C[C@@H]12,Potency,[1],inactive
same,Potency,[2],"inconclusive: 1.66 µM [cytotoxic, partial curve, poor fit]"
same,Potency,[4],"inconclusive: 14.8 µM [cytotoxic, partial curve, poor fit]"
C[C@@H]1CC[C@H]2[C@@H](C)C(=O)O[C@@H]3O[C@@]4(C)CC[C@H]1[C@]32OO4,Potency,[1],"inconclusive: 6.11 µM [cytotoxic, partial curve]"
same,Potency,[2],"inconclusive: 0.935 µM [cytotoxic, full curve]"
same,Potency,[5],"inconclusive: 9.35 µM [cytotoxic, partial curve, poor fit]"
same,Potency,[6],"inconclusive: 5.9 µM [cytotoxic, partial curve]"
same,Potency,[4],"inconclusive: 5.9 µM [cytotoxic, partial curve]"
Cc1c(C(=O)c2cccc3ccccc23)c2cccc3c2n1[C@H](CN1CCOCC1)CO3,Potency,[1],active: 13.7 µM
same,Potency,[2],active: 29.6 µM
same,Potency,[3],"inconclusive: 33.2 µM [cytotoxic, single point]"
same,Potency,[6],"inconclusive: 18.7 µM [cytotoxic, partial curve]"
same,Potency,[4],active: 20.9 µM
COc1cccc(C(=O)CCN[C@@H](C)[C@H](O)c2ccccc2)c1,Potency,[1],"inconclusive: 38.9 µM [cytotoxic, single point]"
same,Potency,[2],"inconclusive: 29.9 µM [cytotoxic, single point]"
same,Potency,[6],"inconclusive: 26.6 µM [cytotoxic, single point]"
same,Potency,[4],"inconclusive: 29.9 µM [cytotoxic, single point]"
C[C@]12Cc3nonc3C[C@@H]1CC[C@@H]1[C@@H]2CC[C@@]2(C)[C@H]1CC[C@]2(C)O,Potency,[1],active: 15.5 µM
same,Potency,[2],"inconclusive: 21.1 µM [cytotoxic, single point]"
same,Potency,[6],inactive
same,Potency,[4],"inconclusive: 21.1 µM [cytotoxic, partial curve, poor fit]"
N#CC(C#N)=Cc1ccc(O)c(O)c1,Potency,[1],"inconclusive: 21.9 µM [cytotoxic, single point]"
same,Potency,[5],inactive
Clc1ccc(COC(Cn2ccnc2)c2ccc(Cl)cc2Cl)cc1 (configuration not stated),Potency,[1],"inconclusive: 27.6 µM [cytotoxic, single point] and inconclusive: 34.3 µM [cytotoxic, single point]"
same,Potency,[2],"inconclusive: 26.6 µM [cytotoxic, single point] and inconclusive: 37.2 µM [cytotoxic, single point]"
same,Potency,[5],"inconclusive: 33.5 µM [cytotoxic, single point]"
same,Potency,[4],"inconclusive: 23.7 µM [cytotoxic, single point] and inconclusive: 37.2 µM [cytotoxic, partial curve, poor fit]"
COc1nn(CSP(=S)(OC)OC)c(=O)s1,Potency,[1],"inconclusive: 39.9 µM [cytotoxic, partial curve, poor fit]"
same,Potency,[2],"inconclusive: 68.6 µM [cytotoxic, partial curve, poor fit]"
same,Potency,[5],"inconclusive: 61.1 µM [cytotoxic, partial curve, poor fit]"
same,Potency,[6],"inconclusive: 68.6 µM [cytotoxic, partial curve, poor fit]"
same,Potency,[4],"inconclusive: 48.6 µM [cytotoxic, single point]"
COc1ccc2c(c1OC)CN1CCc3cc4c(cc3C1C2)OCO4 (configuration not stated),Potency,[1],"active: 17.4 µM and inconclusive: 10.9 µM [cytotoxic, partial curve]"
same,Potency,[2],"inconclusive: 26.6 µM [cytotoxic, single point]"
same,Potency,[6],"inconclusive: 9.44 µM [cytotoxic, partial curve, poor fit]"
CNC(=O)c1ccc(N2C(=S)N(c3ccc(C#N)c(C(F)(F)F)c3)C(=O)C23CCC3)cc1F,Potency,[1],"inconclusive: 7.69 µM [cytotoxic, partial curve]"
same,Potency,[2],"inconclusive: 41.8 µM [cytotoxic, single point]"
same,Potency,[3],active: 13.2 µM
same,Potency,[6],"inconclusive: 13.2 µM [cytotoxic, partial curve]"
O=C(Nc1ccncc1)C(=O)c1cn(Cc2ccc(Cl)cc2)c2ccccc12,Potency,[1],active: 0.0863 µM
same,Potency,[2],active: 0.0469 µM
same,Potency,[5],"inconclusive: 0.0743 µM [cytotoxic, full curve]"
same,Potency,[4],active: 0.0743 µM
same,Potency,[7],"inconclusive: 2.93 µM [cytotoxic, full curve]"
O=C1c2ccccc2C(=O)C1C(=O)C(c1ccccc1)c1ccccc1,Potency,[1],"inconclusive: 17.4 µM [cytotoxic, partial curve, poor fit]"
same,Potency,[2],inactive
same,Potency,[5],"inconclusive: 33.5 µM [cytotoxic, single point]"
same,Potency,[4],inactive
O=C(NCC1CCOCC1)c1cnc(Nc2ccc(Cl)cc2Cl)nc1C(F)(F)F,Potency,[1],"inconclusive: 21.7 µM [cytotoxic, partial curve]"
same,Potency,[2],"inconclusive: 33.2 µM [cytotoxic, single point]"
same,Potency,[4],"inconclusive: 13.2 µM [cytotoxic, partial curve]"
CC(=Cc1csc(C)n1)[C@@H]1C[C@H]2O[C@]2(C)CCC[C@H](C)[C@@H](O)[C@@H](C)C(=O)C(C)(C)[C@@H](O)CC(=O)O1,Potency,[1],active: 0.001 µM
same,Potency,[2],"inconclusive: 0.105 µM [cytotoxic, full curve]"
same,"activity change, negative = cytotoxic",[5],inconclusive: -64.4%
same,Potency,[4],inconclusive: 0.001 µM [cytotoxic]
same,Potency,[8],"inconclusive: 0.0059 µM [cytotoxic, full curve]"
same,Potency,[9],active: 0.0059 µM
same,Potency,[7],"inconclusive: 0.0522 µM [cytotoxic, full curve, poor fit]"
O=C1CC[C@@]2(O)[C@H]3Cc4ccc(O)c5c4[C@@]2(CCN3CC2CC2)[C@H]1O5,Potency,[1],inactive
same,Potency,[2],"inconclusive: 2.09 µM [cytotoxic, partial curve, poor fit]"
same,Potency,[4],"inconclusive: 14.8 µM [cytotoxic, partial curve]"
CC(C)(O)C(=O)Nc1ccc([N+](=O)[O-])c(C(F)(F)F)c1,Potency,[1],"inconclusive: 3.06 µM [cytotoxic, partial curve]"
same,Potency,[2],active: 29.6 µM
same,Potency,[3],"inconclusive: 33.2 µM [cytotoxic, single point]"
same,Potency,[6],"inconclusive: 26.4 µM [cytotoxic, single point]"
same,Potency,[4],"inconclusive: 14.8 µM [cytotoxic, partial curve]"
C[C@]12CC[C@H]3[C@@H](CCC4=CC(=O)CC[C@@H]43)[C@@H]1CC[C@@H]2OC(=O)CCc1ccco1,Potency,[1],"inconclusive: 19.5 µM [cytotoxic, single point]"
same,Potency,[5],inactive
C#C[C@]1(O)CC[C@H]2[C@@H]3CCC4=CC(=O)CCC4=C3C=C[C@@]21CC,Potency,[1],"inconclusive: 24.6 µM [cytotoxic, single point]"
same,Potency,[2],"inconclusive: 26.6 µM [cytotoxic, single point]"
same,Potency,[6],"inconclusive: 13.3 µM [cytotoxic, partial curve, poor fit]"
same,Potency,[4],"inconclusive: 21.1 µM [cytotoxic, single point]"
Cc1ccccc1-n1c(Cn2ncc3c(N)ncnc32)nc2cccc(C)c2c1=O,Potency,[1],active: 0.0069 µM
same,Potency,[2],"inconclusive: 0.0066 µM [cytotoxic, full curve]"
same,Potency,[5],"inconclusive: 0.59 µM [cytotoxic, full curve]"
same,Potency,[6],"inconclusive: 2.35 µM [cytotoxic, partial curve]"
same,Potency,[8],active: 0.522 µM
same,Potency,[7],active: 18.5 µM
CN1CCN(C(=O)O[C@H]2c3nccnc3C(=O)N2c2ccc(Cl)cn2)CC1,Potency,[1],inactive
same,Potency,[2],inactive
same,Potency,[6],inactive
Cn1c(CCCC(=O)O)nc2cc(N(CCCl)CCCl)ccc21,Potency,[1],active: 24.6 µM and active: 24.3 µM
same,Potency,[2],inactive
same,Potency,[6],"inconclusive: 3.72 µM [cytotoxic, partial curve]"
same,Potency,[10],"inconclusive: 36.9 µM [cytotoxic, single point]"
same,Potency,[7],inactive
NC1(c2ccccc2)CCCCC1,Potency,[1],"inconclusive: 1.4 µM [cytotoxic, full curve, poor fit]"
same,Potency,[2],"inconclusive: 60.5 µM [cytotoxic, single point]"
same,Potency,[3],inactive
same,Potency,[4],"inconclusive: 67.9 µM [cytotoxic, partial curve, poor fit]"
C[C@@H]1[C@@H](CC(C[C@H]2O[C@@H]3O[C@]4(C)CC[C@@H]5[C@H](C)CC[C@@H]([C@H]2C)[C@@]35OO4)C[S+](=O)([O-])c2ccc(COC(=O)N(C)C)cc2)O[C@@H]2O[C@]3(C)CC[C@H]4[C@H](C)CC[C@@H]1[C@@]24OO3 (some centres not stated),Potency,[1],active: 0.306 µM
same,Potency,[2],"inconclusive: 0.166 µM [cytotoxic, full curve]"
same,Potency,[5],"inconclusive: 0.743 µM [cytotoxic, full curve]"
same,Potency,[6],inactive
same,Potency,[4],"inconclusive: 0.235 µM [cytotoxic, full curve]"
same,Potency,[10],"inconclusive: 0.147 µM [cytotoxic, full curve]"
O=[N+]([O-])c1c2ccccc2cc2ccccc12,Potency,[1],"inconclusive: 78.9 µM [cytotoxic, partial curve, poor fit]"
same,Potency,[2],"inconclusive: 53.9 µM [cytotoxic, single point]"
same,Potency,[3],inactive
same,Potency,[4],"inconclusive: 30.3 µM [cytotoxic, single point]"
